# This is one part of the list.
# Legend:
# [1] = test system: HSkMC (human skeletal muscle cells); test: cytotoxicity call (relative viability < 0.9); details: 10 µM
# [2] = test system: HepG2; test: cytotoxicity call (relative viability < 0.9); details: 10 µM
# [3] = test system: S. aureus RN4220; test: growth inhibition call (relative growth <= 0.2); details: 50 µM
Structure (SMILES),cytotoxicity call [1],cytotoxicity call [2],growth inhibition call [3]
CO[C@@H]1CN(C)C(=O)c2cc(NC(=O)Nc3ccccc3Cl)ccc2OC[C@@H](C)N(Cc2ccccc2C(=O)O)C[C@H]1C,inactive,inactive,inactive
CCC(=O)N1Cc2cc(C(=O)NCc3cccc(F)c3)nc(-c3cccc(C4=CCCC4)c3)c2[C@H]1CCO,inactive,inactive,inactive
COc1ccc(S(=O)(=O)Nc2ccc3c(c2)C(=O)N([C@H](C)CO)C[C@@H](C)[C@H](CN(C)Cc2ccc(Cl)c(Cl)c2)O3)cc1,active,inactive,inactive
COc1ccc2c3c([nH]c2c1)[C@@H](CO)N(C[C@]13CCN(CC1)C(=O)c1ccncc1)C(=O)c1ccncc1,inactive,inactive,inactive
Cc1ccc(S(=O)(=O)N(C)C[C@@H]2OCCCC[C@H](C)Oc3ccc(NC(=O)Nc4cccc5ccccc45)cc3C(=O)N([C@H](C)CO)C[C@H]2C)cc1,inactive,inactive,inactive
C[C@@H]1CCCCO[C@@H](CN(C)S(=O)(=O)c2ccc(F)cc2)[C@@H](C)CN([C@@H](C)CO)C(=O)c2cc(NC(=O)NC3CCCCC3)ccc2O1,inactive,inactive,inactive
CC(=O)N(C)C[C@@H]1Oc2cc(C#CCN(C)C)ccc2S(=O)(=O)N([C@@H](C)CO)C[C@@H]1C,inactive,inactive,inactive
C[C@H](CO)N1C[C@H](C)[C@@H](CN(C)S(C)(=O)=O)Oc2cc(-c3ccccc3F)ccc2S1(=O)=O,inactive,inactive,inactive
O=C(C[C@@H]1CC[C@@H]2[C@H](COC[C@H](O)CN2S(=O)(=O)c2ccc(Cl)cc2)O1)NCc1ccncn1,inactive,inactive,inactive
